Results: PubChem BioAssay AID686979 (National Center for Advancing Translational Sciences (NCATS), 2013)
Values joined by “and” are separate entries in the source; they are usually repeats but may differ in a detail not shown here. Equal values may be shown once. Among all 420,000 compounds or so, about 50,000 (12%) were called active. The shares of active, inactive and inconclusive entries below differ from those in the screen. Calls follow the shape of the dose curve; as a rule, active = well fitted inhibition curve with a large enough effect; inconclusive = small, poorly fitted or top-dose-only effect; inactive = flat fitted curve, though single readings scatter. Potencies of inconclusive entries are left out as doubtful fits.
% is scaled to controls: 0 for no effect and ±100 for the full control effect; potency is read from the fitted curve at half-maximal effect; tags tell the direction and shape of the fitted curve.

Assay: qHTS for Inhibitors of human tyrosyl-DNA phosphodiesterase 1 (TDP1): qHTS in cells in presence of CPT; also: nearly all actives have a fitted effect of over 55% in size
Conditions: chicken DT40 Tdp1-/-;hTDP1 cells + 20 nM CPT, ATP luminescence, 48 h; activity change, negative = growth inhibition: at 46.2 µM (top of the series)
Summary of the method: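 Cell growth measured by CellTiter-Glo luminescence after a minimum 48 h, 37 C compound exposure with 20 nM CPT in Tdp1-knockout DT40 cells stably expressing hTDP1, seeded 400/well; qHTS titration format.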
For `COCCNc1nc(-c2c(C)noc2C)nc2ccccc12`, the “activity change, negative = growth inhibition” value was inactive: -22.4%.
For `COc1cccc(-c2cc3c(c(OC)c2)OCCN(Cc2ccccc2O)C3)n1`, the “activity change, negative = growth inhibition” value was inactive: -0.144%.
With `CC1CN(CCC(=O)Nc2ccccc2F)CC(C)O1` (configuration not stated) the “activity change, negative = growth inhibition” value was inactive: 19.7%.
For `CN1C(=O)C2(OCCCO2)c2cc(Cl)ccc21`, the “activity change, negative = growth inhibition” value was inactive: 9.13%.
With `NC(=O)COC(=O)c1cc(S(=O)(=O)N2CCOCC2)ccc1N1CCCCC1` the “activity change, negative = growth inhibition” value was inactive: -9.42%.
In the case of `Cc1oc2ccc(OC(C(=O)O)c3ccccc3)cc2c1C(=O)O` (configuration not stated), the “activity change, negative = growth inhibition” value was inactive: 16.7%.
With `CCOC(=O)N1c2ccccc2Sc2ccccc21` the “activity change, negative = growth inhibition” value was inactive: -11%.
In the case of `Cc1noc(C)c1COc1ccccc1C(=O)NCCc1ccc(F)cc1`, the Potency was inconclusive [inhibitor, single point].
In the case of `Cc1ccc(-c2csc(Nc3ccc(S(N)(=O)=O)cc3)n2)o1`, the “activity change, negative = growth inhibition” value was inactive: -15.2%.
In the case of `CCCOc1ccccc1C1CC(=O)Nc2cc3c(cc21)OCO3` (configuration not stated), the Potency was active: 2.31 µM.
In the case of `CN(C)c1ccc(/C=C2\CCC/C(=C\c3ccccc3)C2=O)cc1`, the Potency was inconclusive [inhibitor, single point].
With `Cc1ccc(N(CCC#N)C(=O)CSc2nc3ccccc3c(=O)[nH]2)cc1` the Potency was inconclusive [inhibitor, partial curve].
In the case of `CCOC(=O)c1ccc(N2CCN(c3cccc(OC)c3)CC2)c(NC(=O)Nc2ccc(OCC)cc2)c1`, the Potency was inconclusive [inhibitor, single point].
In the case of `Cc1ccccc1OCCNC(=O)c1ccc2ccccc2n1`, the Potency was inconclusive [inhibitor, single point].
For `CCc1nc2ccc(C(=O)Nc3ccc(OC)c(OC)c3)cn2c1N(CC)Cc1cccc(Br)c1`, the Potency was active: 23.1 µM.
In the case of `CC(C)CC(NC(=O)C(NC(=O)OC(C)(C)C)C(C)C)C(=O)N1CCCC1C(N)=O` (configuration not stated), the Potency was inconclusive [inhibitor, partial curve].
With `CCOC(=O)c1c(NC(=O)c2nc(SCC)ncc2Cl)sc(C(C)=O)c1C` the “activity change, negative = growth inhibition” value was inactive: 0.949%.
In the case of `COc1cc(OC)cc(C(=O)NC(C(=O)NCCN(C)C)C23CC4CC(CC(C4)C2)C3)c1` (configuration not stated), the Potency was inconclusive [inhibitor, single point].
For `CC1CCCN(C(=O)CSCC(=O)N=c2sc3ccccc3n2C)C1` (configuration not stated), the Potency was inconclusive [inhibitor, single point].
With `C=CCn1c(CCNC(=O)c2ccc(Cl)c(Cl)c2)nnc1SCCOc1ccc(OC)cc1` the Potency was inconclusive [inhibitor, single point].
For `Cc1noc(NC(=O)c2cccc(Cl)c2Cl)c1C#N`, the Potency was inconclusive [inhibitor, single point].
In the case of `COc1ccc(NC(=O)c2cc3c(-c4ccc(OC)c(OC)c4)nn(C)c3s2)cc1OC`, the Potency was active: 18.4 µM.
With `O=C(NC12CC3CC(CC(C3)C1)C2)C12CC3CC(C1)CC(n1cnc(Cl)n1)(C3)C2` the Potency was active: 20.6 µM.
For `COc1ccc(/C=C/C(=O)c2ccc3c(c2)OCCO3)cc1[N+](=O)[O-]`, the Potency was inconclusive [inhibitor, single point].
For `CCOc1ccccc1N(CC(=O)NCCSCc1ccco1)S(=O)(=O)c1ccccc1`, the Potency was inconclusive [inhibitor, single point].
In the case of `c1ccc(CNCCCNCCCCNCCCNCc2ccccc2)cc1`, the Potency was inconclusive [inhibitor, single point].
For `CC(C)c1nc2oc3c(=O)[nH]cnc3c2c2c1COC(C)(C)C2`, the “activity change, negative = growth inhibition” value was inactive: -4.75%.
With `CC(=O)c1cccc(NC(=O)/C=C/c2ccc([N+](=O)[O-])s2)c1` the Potency was active: 1.3 µM.
For `CCOC(=O)c1c(NC(=O)CSc2c[nH]c3ccccc23)sc2c1CCC2`, the Potency was inconclusive [inhibitor, single point].
With `COC(=O)C(C#N)c1nc2ccccc2nc1N1CCCC1` (configuration not stated) the Potency was inconclusive [inhibitor, partial curve].
For `CCC(=O)Nc1cccc(NC(=O)c2cccc([N+](=O)[O-])c2C)c1`, the activity change, negative = growth inhibition was inconclusive: -36.1% [inhibitor].
For `Cc1ccc(S(=O)(=O)Cc2ccc(C(=O)N3CCN(c4cccc(C)c4C)CC3)o2)cc1`, the Potency was active: 1.03 µM and active: 1.84 µM.
For `COc1cccc(NC(=O)C2CCN(S(=O)(=O)c3ccc(N4CCCC4=O)cc3)CC2)c1`, the Potency was active: 14.6 µM.
In the case of `Fc1ccc(C2CC(c3ccccc3)n3ncnc3N2)cc1` (configuration not stated), the “activity change, negative = growth inhibition” value was inactive: -0.087%.
In the case of `CN(C)C(=O)c1ccc(-c2nc(Nc3ccc(F)cc3)c3ccccc3n2)cc1`, the Potency was inconclusive [inhibitor, single point].
With `O=c1c2ccccc2nc2c3ccccc3c3nncn3n12` the Potency was active: 7.31 µM.
For `CCC(=O)N1CCc2cc(Br)cc(S(=O)(=O)CCC(=O)N3CCN(c4cccc(C(F)(F)F)c4)CC3)c21`, the Potency was inconclusive [inhibitor, single point].
With `Cc1csc(CNC(=O)C2CCC(=O)N(CCc3cccc(F)c3)C2)n1` (configuration not stated) the “activity change, negative = growth inhibition” value was inactive: 12.9%.
In the case of `CN(C)P(=NC(=O)COc1ccc(Cl)cc1Cl)(N(C)C)N(C)C`, the Potency was inconclusive [inhibitor, single point].
In the case of `CCOC(=O)N1CCN(C(=O)c2ccc3oc(CCc4ccccc4)nc3c2)CC1`, the Potency was inconclusive [inhibitor, single point].
In the case of `O=[N+]([O-])c1cc(-c2nc(-c3ccccc3)no2)ccc1N1CCCCC1`, the “activity change, negative = growth inhibition” value was inactive: -17%.
With `Cc1ccc(NC(=O)C2CCCN(c3nnc(C)c4c(C)n(-c5ccccc5)nc34)C2)c(Cl)c1` (configuration not stated) the Potency was active: 4.11 µM.
In the case of `CN1CCN/C1=C(/C(Cl)=C(Cl)Cl)[N+](=O)[O-]`, the Potency was active: 11.6 µM.
In the case of `CC(C)c1ccccc1NC(=O)CN1C(=O)c2ccccc2C1=O`, the “activity change, negative = growth inhibition” value was inactive: 28.9%.
With `C(=N\N1CCN(C(c2ccccc2)c2ccccc2)CC1)/c1ccc2c(c1)OCO2` the Potency was inconclusive [inhibitor, partial curve].
In the case of `COc1ccc(OC)c(C2=Nn3c(nnc3-c3ccco3)SC2)c1`, the Potency was inconclusive [inhibitor, partial curve].
For `Cc1ccc(C(NC(=O)Nc2ccccn2)C(Cl)(Cl)Cl)cc1F` (configuration not stated), the Potency was inconclusive [inhibitor, single point].
